{
  "sequences": {"note": "The chains behind the UniProt entries cited, without tags or fusion partners.", "UniProt P9WPE7": "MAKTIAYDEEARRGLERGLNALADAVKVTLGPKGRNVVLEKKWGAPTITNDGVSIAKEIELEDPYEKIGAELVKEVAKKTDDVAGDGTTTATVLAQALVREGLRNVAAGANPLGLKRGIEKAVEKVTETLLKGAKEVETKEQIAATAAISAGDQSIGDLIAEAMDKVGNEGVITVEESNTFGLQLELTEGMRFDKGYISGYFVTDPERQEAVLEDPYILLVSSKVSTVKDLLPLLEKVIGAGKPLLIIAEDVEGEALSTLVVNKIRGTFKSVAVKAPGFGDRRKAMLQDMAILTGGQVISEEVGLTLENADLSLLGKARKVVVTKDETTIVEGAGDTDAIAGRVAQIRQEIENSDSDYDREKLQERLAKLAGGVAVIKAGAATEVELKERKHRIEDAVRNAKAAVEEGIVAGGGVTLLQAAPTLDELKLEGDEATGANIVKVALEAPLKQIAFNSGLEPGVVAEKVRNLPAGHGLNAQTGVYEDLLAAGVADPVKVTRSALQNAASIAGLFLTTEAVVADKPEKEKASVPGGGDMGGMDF", "UniProt P9WGI1": "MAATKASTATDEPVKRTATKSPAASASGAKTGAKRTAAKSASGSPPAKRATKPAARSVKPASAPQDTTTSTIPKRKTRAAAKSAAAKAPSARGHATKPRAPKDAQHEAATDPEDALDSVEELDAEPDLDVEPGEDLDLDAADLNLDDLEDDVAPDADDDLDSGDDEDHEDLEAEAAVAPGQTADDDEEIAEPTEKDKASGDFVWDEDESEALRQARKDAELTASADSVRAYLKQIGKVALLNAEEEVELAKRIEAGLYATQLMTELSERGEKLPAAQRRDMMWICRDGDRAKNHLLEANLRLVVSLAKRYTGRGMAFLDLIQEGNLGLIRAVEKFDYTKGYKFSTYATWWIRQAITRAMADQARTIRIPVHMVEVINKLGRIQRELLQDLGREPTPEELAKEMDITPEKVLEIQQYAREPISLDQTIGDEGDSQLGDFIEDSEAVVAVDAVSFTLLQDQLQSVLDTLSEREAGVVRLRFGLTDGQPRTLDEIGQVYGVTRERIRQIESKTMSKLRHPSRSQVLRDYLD"},
  "source": "paper PMC4022732",
  "molecular_target": "Mtb GroEL2 (Rv0440, hsp65), M-PFC bait fusion (Mycobacterium tuberculosis H37Rv) (UniProt P9WPE7)",
  "assay": "split reporter",
  "note": "These are yes or no findings as the source states them, for the method shown. In cells and extracts the contact can be indirect.",
  "data": [
    {"substance": "Mtb SigA, M-PFC control fusion (from UniProt P9WGI1 1-528)", "values": [
      {"measurement": "binding", "result": "no binding"}
    ]}
  ]
}
